# PubChem BioAssay AID1508642 (National Center for Advancing Translational Sciences (NCATS), 2021)
# The whole screen tested about 43,000 compounds, of which about 200 (0.47%) were called active. Roughly 12% stayed inconclusive and do not appear here. Calls follow the shape of the dose curve; as a rule, active = well fitted cell-killing curve with a large enough effect; inconclusive = small, poorly fitted or top-dose-only effect, or effect the other way; inactive = flat fitted curve, though single readings scatter. This is one part of the list.
# Experiment: Cell viability qHTS assay in S16 Pmp22-F2sN cells; also: nearly all actives have a fitted effect of over 65% in size
# Settings: S16 Pmp22-F2sN Schwann cells viability, CellTiter-Glo, 24 h; series mostly up to 57.5 µM; activity change, negative = cytotoxicity: at the top concentration
# Method in brief: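 Used to flag compounds lowering reporter output through toxicity, this quantitative HTS measures ATP-based CellTiter-Glo luminescence in S16 Pmp22-F2sN Schwann cells after 24 h compound exposure at 37C.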
# % is scaled to controls: 0 for no effect and ±100 for the full control effect.
row,SMILES,"activity change, negative = cytotoxicity"
1,Cc1cc(C)c2c(CC(=O)N3CCN(c4cccc(Cl)c4)CC3)coc2c1,inactive: -0.357%
2,CCOc1ccccc1N1CC(c2nc3ccccc3n2CCOc2ccccc2)CC1=O (stereo not drawn),inactive: -10.6%
3,CCc1cccc(NC(=O)Cn2c(=O)ccc3cc(S(=O)(=O)N4CCC(C)CC4)ccc32)c1,inactive: 4.61%
4,CCc1ccc(CNc2ncnc3c2nc2n3CCCC2)cc1,inactive: -11.2%
5,O=C(c1ccc2c(c1)N(Cc1ccc(Cl)cc1)C(=O)c1ccccc1S2=O)N1CCOCC1 (stereo not drawn),inactive: 14.1%
6,COc1cccc(N2CCN(C(=O)c3ccc(Cn4c(=O)[nH]c5cc(OC)c(OC)cc5c4=O)cc3)CC2)c1,inactive: -25.7%
7,CC1CCc2nc3ncn(Cc4ccccc4C#N)c(=O)c3cc2C1 (stereo not drawn),inactive: 3.28%
8,CCC(=O)N1c2ccccc2CC1C(=O)NCCc1ccccc1C (stereo not drawn),inactive: 5.58%
9,Cc1c(Cl)cccc1NC(=O)c1cnc2sc(N3CCOCC3)nn2c1=O,inactive: 3.29%
10,CCN(c1ccccc1)S(=O)(=O)c1ccc(NC(=O)c2cc(=O)c3cc(C)cc(C)c3o2)cc1,inactive: -3.48%
11,COc1ccc2oc(=O)cc(CN3CCN(Cc4ccccc4)CC3)c2c1,inactive: -17.6%
12,COc1ccc(OC)c(CCNC(=O)CCCn2c(=O)c3cccn3c3ccccc32)c1,inactive: -4.33%
13,O=C(CSc1cn(CC(=O)N2CCOCC2)c2ccccc12)Nc1ccccc1F,inactive: 11.2%
14,Cc1ccc(S(=O)(=O)Nc2ccc3c(c2)CCCN3C(=O)c2cccs2)cc1,inactive: -10.2%
15,Cc1cc2ccccc2n1CCNC(=O)c1cccc(Br)c1,inactive: 16.2%
16,O=C(Nc1ccc2nn(-c3ccccc3)nc2c1)c1cc2ccccc2o1,inactive: 12.9%
17,CCOC(=O)c1scc(-c2ccccc2)c1S(=O)(=O)Nc1cc(OC)cc(OC)c1,inactive: 12.9%
18,CC(C)Oc1ccc(CNC(=O)CCCN2C(=O)c3cccnc3Oc3ccc(Cl)cc32)cc1,inactive: -22.3%
19,CCN(C(=O)c1cc2c(s1)-c1c(C)cccc1OC2)c1ccccc1F,inactive: -17.6%
20,CCC(=O)N1CCc2cc(Br)cc(S(=O)(=O)Nc3ccc(C)cc3C)c21,inactive: -9.64%
21,COc1ccc(CC(=O)N2CCc3cc(OC)c(OC)cc3C2COc2ccc(OC)cc2)cc1 (stereo not drawn),inactive: -13.8%

row,SMILES,"activity change, negative = cytotoxicity"
1,Cc1ccc(C)c(NC(=O)c2cnn(-c3cccc(F)c3)c2C2CCN(C(=O)OC(C)(C)C)CC2)c1,inactive: -19.2%
2,CCOc1ccc(NS(=O)(=O)c2ccc(-c3cc(C)no3)s2)cc1,inactive: -26.1%
3,O=C(Cn1cc(SCc2c(F)cccc2Cl)c2ccccc21)N1CCCCCC1,inactive: -18.7%
4,COc1ccc(-n2nc(C(=O)N(C)c3cc(C)ccc3C)c3c4ccccc4n(C)c3c2=O)cc1Cl,inactive: 6.31%
5,Cc1ccc2c(Sc3ccc(Cl)cc3)c(C(=O)N3CCC(C)CC3)[nH]c2c1,inactive: -2.77%
6,COc1ccc(CNS(=O)(=O)c2cnc(N)nc2)c(OC)c1,inactive: -3.74%
7,CS(=O)(=O)c1ccc(-c2nnc(NC(=O)c3ccc4c(c3)OCCO4)o2)cc1,inactive: -2.87%
8,CNC(=O)c1c(NC(=O)c2ccc(S(=O)(=O)N3CCC(C)CC3)cc2)sc2c1CCC2,inactive: 1.33%
9,Cc1cccc(C)c1OCC(=O)NCC1(N(C)C)CCCCC1,inactive: 1.42%
10,Cc1ccc(N2C(=O)CSC23C(=O)N(CC(=O)NCc2ccccc2)c2ccccc23)cc1C (stereo not drawn),inactive: -2.11%
11,COc1ccccc1CNC(=O)C1CCC(CNS(=O)(=O)c2ccc3c(c2)CCCC(=O)N3)CC1 (stereo not drawn),inactive: -18.1%
12,COCCCNC(=O)c1ccc(NC(=O)c2nsc3ccccc23)cc1,inactive: -20.3%
13,COc1ccc(CNC(=O)c2ccc(N3CCCC3)c(NC(=O)NCc3ccc(F)cc3)c2)cc1,inactive: 5.81%
14,CCOc1cc(CNC(=O)c2sc3ncnc(N(C)C4CCCCC4)c3c2C)ccc1OC,inactive: 0.598%
15,CC(=O)c1ccc(NC(=O)Cn2cc(S(=O)(=O)Cc3cccc(Cl)c3)c3ccccc32)cc1,inactive: -3.38%
16,CCC1CN(C(=O)N2CCC(C(=O)NCCN(CC)CC)CC2)c2cc(C)ccc2O1 (stereo not drawn),inactive: 3.39%
17,CCc1ccccc1NC(=O)c1c(NC(=O)c2ccccc2)sc2c1CCCC2,inactive: 9.4%
18,Cc1ccc(-c2nnc(SCc3ccccc3C)o2)cc1,inactive: 10.6%
19,COc1ccc(S(=O)(=O)Nc2ccc3c(c2)N(C(C)=O)CCC3)cc1F,inactive: -17.5%
20,CCOC(=O)C1CCC(CN(Cc2cccc(Br)c2)S(=O)(=O)c2ccc(C)cc2)CC1 (stereo not drawn),inactive: 4.42%
21,CCc1ccc(C(=O)c2cn(CC(=O)Nc3ccc4c(c3)OCO4)c3cc(OC)c(OC)cc3c2=O)cc1,inactive: 13.3%

row,SMILES,"activity change, negative = cytotoxicity"
1,O=C(COc1ccc(Cl)cc1)Nc1ccc(-c2nc3ccccc3s2)c(O)c1,inactive: -2.44%
2,Cc1ccccc1N1CC(c2nc3ccccc3n2CCC2CCCCC2)CC1=O (stereo not drawn),inactive: -16.5%
3,COc1ccc(CNC(=O)CCn2cccn2)cc1,inactive: 4.37%
4,Cc1ccc(C(C)C)c(OCC(=O)NCC2(N(C)C)CCCCC2)c1,inactive: 4.87%
5,COc1ccc(CCn2cc3c(c2-c2ccc(Br)cc2)c(=O)n(C)c(=O)n3C)cc1OC,inactive: 0.0745%
6,Cc1ccccc1C(=O)n1nc(-c2ccco2)nc1NCc1ccc(Cl)cc1,inactive: 2.73%
7,COc1ccc(-c2nc(C)c(CCNC(=O)C(=O)Nc3ccccc3OC)s2)cc1,inactive: 7.4%
8,O=C(NCCc1ccccc1Cl)c1ccc(Cn2c(=O)c3cccn3c3cccnc32)cc1,inactive: 0.699%
9,Cc1ccc(-c2cc3ncc4c(n3n2)-c2cc(C)ccc2OC4)cc1,inactive: 23.5%
10,Cc1cccc(Oc2nc3c(C)cccn3c(=O)c2/C=C(\C#N)c2nc3ccccc3[nH]2)c1,inactive: -1.54%
11,Cc1ccc2nc(N3CCN(c4cccc(Cl)c4)CC3)c(-n3nc(C)cc3C)nc2c1,inactive: 4.37%
12,CCOC(=O)C1=C(CN2CCC(C)CC2)NC(=O)NC1c1ccc(F)cc1 (stereo not drawn),inactive: -1.85%
13,COc1ccc(OC)c2sc(N3CCN(C(=O)C(C)(C)C)CC3)nc12,inactive: 0.312%
14,COc1cc(-c2cc(OC)c3c(C)oc(C)c3c(=O)c2)ccc1OC(=O)c1ccccc1Cl,inactive: 4.52%
15,COc1cc(Cl)c(NC(=O)CCS(=O)(=O)c2cc3c(cc2Cl)NC(=O)CO3)c(OC)c1,inactive: 4.53%
16,CCOc1ccccc1C(=O)Nc1ccc(S(=O)(=O)Nc2nc(C)cc(C)n2)cc1,inactive: -2.85%
17,CCc1cccc(NC(=O)CSC2=Nc3ccccc3N=C(c3ccc(F)cc3)C2)c1,inactive: -2.81%
18,Cc1ccc2nc(NC(=O)COc3ccc(F)cc3)sc2c1,inactive: 22.4%
19,O=C(CSc1nnc(CNC(=O)c2cccc(F)c2)n1-c1ccccc1)Nc1ccccc1F,inactive: 10.2%
20,Cc1ccc(NC(=O)Cn2cnc3sc(C(=O)O)c(C)c3c2=O)cc1Cl,inactive: 10.4%
21,CCN1CCN(c2nc3c(S(=O)(=O)c4ccc(Br)cc4)nnn3c3ccsc23)CC1,inactive: 2.25%
